Data from ChEMBL document CHEMBL4888484, “Replenishing the malaria drug discovery pipeline: Screening and hit evaluation of the MMV Hit Generation Library 1 (HGL1) against asexual blood stage Plasmodium falciparum ,using a nano luciferase reporter read-out” (2022).
In all, about 150,000 compounds went through this assay and about 540 (0.36%) showed an effect of 50% or more. The list shows a part of the results.

What follows are compounds tested on Plasmodium falciparum (assay: Primary screen in NF54 nanoGlo assay, in single point, at 2uM, 72h; a lower Z score goes with more inhibition). Conditions: timepoint 72 hour.
Assay type: functional, Erythrocyte
In the case of `CC(C)n1cc(NC(=O)NC[C@H]2c3ccccc3C(=O)N2C)cn1`, the “% Inhibition” value is reported as -16% and the Z score is reported as 2.29.
In the case of `Fc1ccc2ncnc(N3CCN(c4cc(C(F)(F)F)ncn4)CC3)c2c1`, the “% Inhibition” value is reported as -4% and the Z score is reported as 0.53.
For `CCN(CC1CCOCC1)C(=O)N[C@@H](C)c1nnc(N)s1`, the “% Inhibition” value was -2% and the Z score was 0.3.
In the case of `N#Cc1ccc(N2CCN(C(=O)CCCc3ccccc3)CC2)cn1`, the “% Inhibition” value is reported as -3% and the Z score is reported as 0.3.
For `CC[C@@H](Cn1ccnc1)NC(=O)Nc1cc(C)nn1-c1ccc(OC)cc1`, the “% Inhibition” value was -3% and the Z score was 0.41.
`CC1CCN(S(=O)(=O)N2CCN(C(=O)c3ccccc3F)CC2)CC1` was tested, and the “% Inhibition” value was -6% and the Z score was 1.15.
`COc1ccccc1CN(Cc1cn(CCC(N)=O)c2ccccc12)C1CC1` was tested, and the “% Inhibition” value was 1% and the Z score was -0.11.
`Cc1noc(C)c1C(=O)N[C@@H](CC(C)C)C(=O)OCc1ccccc1` was tested, and the “% Inhibition” value was 37% and the Z score was -5.34.
In the case of `Cn1ncc2c(=O)n(C[C@H](O)COc3ccccc3)cnc21`, the “% Inhibition” value is reported as -7% and the Z score is reported as 1.39.
For `CCC1CN(S(=O)(=O)c2ccc(C#N)nc2)C1`, the “% Inhibition” value was -11% and the Z score was 1.17.
With `CCc1ncc(NC(=O)[C@H]2CC2(C)C)cn1` the “% Inhibition” value was 2% and the Z score was -0.39.
In the case of `CC(C)N(C)Cc1nc(-c2ccc3cncn3c2)no1`, the “% Inhibition” value is reported as -17% and the Z score is reported as 1.87.
For `COC(=O)c1ccc(C(=O)N2CCC(N3CCC(Oc4ccccc4F)CC3)CC2)cc1`, the “% Inhibition” value was -14% and the Z score was 1.79.
`CN(C)c1ccc(NC(=O)c2ccccc2C(=O)c2ccc(Cl)cc2)cc1` was tested, and the “% Inhibition” value was -30% and the Z score was 3.51.
In the case of `Cc1ccc(OCCC(=O)NCc2cnn(CCO)c2)cc1C`, the “% Inhibition” value is reported as 10% and the Z score is reported as -2.09.
In the case of `O=C(NCc1ccccn1)C1CCC(CNS(=O)(=O)c2ccc(F)cc2)CC1` (stereo not drawn), the “% Inhibition” value is reported as -8% and the Z score is reported as 1.04.
With `Cc1cnccc1NC(=O)N1CCC(CCCN2CCOCC2)CC1` the “% Inhibition” value was 3% and the Z score was -0.28.
For `Cn1nccc1CCNS(=O)(=O)CCc1ccc2c(c1)CCO2`, the “% Inhibition” value was 2% and the Z score was -0.25.
For `O=C(Cc1ccc(F)c(F)c1)Nc1ccc(O)nn1`, the “% Inhibition” value was -14% and the Z score was 1.42.
In the case of `CC(C)Oc1ccc(-c2nc3ccc(-c4ccc5c(c4)OCO5)cc3o2)cc1`, the “% Inhibition” value is reported as -20% and the Z score is reported as 1.74.
For `CN1C(=O)Cc2cc(-c3csc(COc4ccc(Cl)cc4)n3)ccc21`, the “% Inhibition” value was 1% and the Z score was -0.05.
In the case of `C[C@@H](c1ccccc1)n1cc(NC(=O)N2CCN(Cc3nc[nH]n3)CC2)cn1`, the “% Inhibition” value is reported as -5% and the Z score is reported as 0.61.
With `CN(Cc1cnccn1)C(=O)[C@H](Cc1ccccc1)N(C)C` the “% Inhibition” value was -8% and the Z score was 1.56.
With `COc1ccccc1NC(=O)C[C@@H]1Oc2ccccc2N=C1O` the “% Inhibition” value was 31% and the Z score was -3.46.
